# The source gives no read counts; variants with many changes may rest on few reads.
# B1: LINE1-mini (parent)
# chain: GGCAGAGCUCAACACAGCGUGGCAAAGUGGCUGUGGCUAGACUGCC
# Variants of: B1
# Assay: self-cleavage, relative activity (ratio to wild type); higher = more cleavage; in vitro, sequencing; the parent is a self-cleaving ribozyme
row,Variant,self-cleavage
1,GGCAGAACUCUACACAGCGUGGCAAAGUGGCGGUGGCUAGACUGCC,0.05
2,GGCAGAACUCAUCAGAGCGUGACAAAGUGGCUGUGACUAGACUGCC,0.17
3,GGCAGAACUCAUCACAGCGUGGCAAAGUGGCUGUGUCUAGACUGCC,0.12
4,GGCAGAACUCAACACGGCGUUGCAAAGUGGCUGUGGCUAGACUGCC,0.16
5,GGCAGAACUCAACUCAGCGAGGUAAAGUGGCUGUGGCUAGAAUGCC,0.11
6,GGCAGAACUCACCACAGCGUGGCACAGUGGCUGUGGCUAGACUGCC,0.02
7,GGCAGAACUCAUCACAGCGUGGCAAAGUGGCGGUGGCUAGGCUGCC,0.08
8,GGCAGAACUCACUACAUCGUGGCAAAGUGGCUGUGGCUAGACCGCC,0.08
9,GGCAGAACUCAACCCAGCGUGGCAAAGUCGCUGUGGCUAGGCUGCU,0
10,GGCAGAACUCAACACGGCGUGGGAAAGUGGCUGUGGAUAGACUGCC,0.15
11,GGCAGAACUCAUCACAGCCUGGCAAUGUGACUGUGGCUAGACUGCC,0.19
12,GGCAGAACUCAACGCAGCGUGGCAAAGUGGCUGUAGCUAGACUGCC,0.45
13,GGCAGAACUCAACUCAGCGUGGCAAAGUGUCUGUGGCUAGACUGCC,1.66
14,GGCAGAACUCAGCACAGCGUGGCAAAGUGGCUGGGGCUAGACUACC,0.06
15,GGCAGAACUCACCACAGCGUGGCAAAUUGGCUGUGGCUAUACUGCC,0.01
16,GGCAGAACUCAACACCGCCUGGCAAAGUGCCUGUGGCCAGACUGCC,0.29
17,GGCAGAACUCAACACCGCGUGGCAAAGUGGCUGUGGGUAGACUGCC,0.09
18,GGCAGAACUCACCACAGCGUGGCAAAAUGGCUUUGGCCAGACUGCC,0.03
19,GGCAGAACUCAUCACAGCUUGGCGUAGUGGCUGUGGCUAGACUGCC,0.11

row,Variant,self-cleavage
1,GGCAGAACUCAACGCAGCGUGGUACAGUGGCUGUGGCUAGACUGCA,0.09
2,GGCAGAACUCAUCACAGCGUGGCUAAGUGUCUGUUGCUAGACUGCC,0.23
3,GGCAGAACUCACCACAGCGUGGCAAAGUGGUUGUGGCUAGACUGUC,0.01
4,GGCAGAACUCAACCCAGCGUGGCAAAGUGGCAGUGGCUAGACUCCC,0.05
5,GGCAGAACUCAACCCAGCGUGGCAAAGUGGCUGUGGCUAGAAUGAC,0.08
6,GGCAGAACUCAACACGACGUGGCAAAGUGGCUGUGGCUAGACUGCC,0.29
7,GGCAGAACUCAACACCGCGUGGCAAAGUGGCUGUGUCUAGACUGCC,0.02
8,GGCAGAACUCAGCACAGCGUGGCAAAGUGGGUGUGGCUAGACUGCC,0.02
9,GGCAGAACUCAACACCGCGUGGCAAAGUGGCUGUGGCUAGAAUGCU,0.45
10,GGCAGAACUCAACUCAGCGGAGCAAAGUGGCUGUGGCUAGACUGUC,0.46
11,GGCAGAACUCACCACAGCGUGGCAAAGUGUAUGUGGCUAGACUGCC,0.03
12,GGCAGAACUCAACCCAGCGUGGCAAAGAGGCUGAGGCUAGACUGCC,0.01
13,GGCAGAACUCAACUCAGCGUGGCAAAGUGGCUGUGGGUAGACUGCC,0.11
14,GGCAGAACUCAGGAUAGCGUGGCAAAGUGGCUGUGGUUAGACUGCC,0.07
15,GGCAGAACUCACCACAGCGUGGCAAAGUGGCUGUGGUUAGACUGCC,0.01
16,GGCAGAACUCACCACAGCGUGGCACAGUGGCUGUGGCUAGUCUGCC,0
17,GGCAGAACUCAUCACAGCGUGGCAAGGUGGUUGUGGCUAGACUGCC,0.08
18,GGCAGAACUCAACACCGUGUGGCAAAGUGGCUGUGACUAGACUGCC,0.09
19,GGCAGAACUCAACCCAGCGUGGCAAUGUGGCUGUGGCUAGACUGCC,0.14

row,Variant,self-cleavage
1,GGCAGAACUCAUCACAACGAGGCAAAGUGGCUGUGGUUAGACUGCC,0.02
2,GGCAGAACUCAACCCAACGUGGCAAAGUGGCUGUGGCUAGAGUGCC,0.02
3,GGCAGAACUCAACGCAGCGUGGCAAAGUGGCUGUGGCUAUACUGCC,0.16
4,GGCAGAACUCAUCACAUCGUGGCAAAGUGGCUGUGGCUCGACUGCC,0.08
5,GGCAGAACUCAACUCAGCGUGGCAAAGUGGCUUUGGCUAGACUGCC,0.03
6,GGCAGAACUCAACACGGCGUAGCAAAGCGGCAGUGGCUAGACUGCC,0.13
7,GGCAGAACUCAACUCAGCGUUGCAAAGUGGCUGUGGCUAGACUGCC,0.13
8,GGCAGAACUCACCACAGCGUGGCAAUGUGGCUGUGGCUAGACUGCC,0.01
9,GGCAGAACUCAACUCAGGGUGGCAAAGUGGCUAUGGCUAGACUGCC,0.09
10,GGCAGAACUCAACGCAGCGUGGCAAAGUGGCUGUGUCUAGACUGCC,0.21
11,GGCAGAACUCACCACAGCGUGGCAAAGUGGCUGGGGCUAGACUGCC,0.01
12,GGCAGAACUCAUCAAAGCAUGGCAAAGUGGCUGUGGCUAGACUGCC,0.31
13,GGCAGAACUCAACACCCCGUGGCAAAGUGGCUGUCGCUAGACUGCC,0.02
14,GGCAGAACUCAACACCGCGUGGCAAAGAGGCUGUGGCUAGACUGCA,0.11
15,GGCAGAACUCAACACGGCGUGGCAAAGUGGAUAUGGCUAGACUGCC,0
16,GGCAGAACUCACCACAGCGAGGCAAAGCGGCUGUCGCUAGACUGCC,0
17,GGCAGAACUCACCACAACGAGGCAAAGCGGCGGUGGCUAGACUGCC,0.03
18,GGCAGAACUCACCAGAGCGUGGCAAAGUGGCUGUGGCAAGAUUGCC,0.04
